Measured values taken from patent US20030211992A1 (published 2003).

Molecular target: T1, recombinant human IGFBP-3 (human, UniProt P17936)
T1 construct: biotinylated and held on a streptavidin chip in the ALS experiment
Experiment: BIAcore
Procedure: Carboxymethylated dextran biosensor chips (CM5, BIAcore Inc.) were activated with EDC (N-ethyl-N′-(3-dimethylaminopropyl)-carbodiimide hydrochloride) and NHS(N-hydroxysuccinimide) according to the supplier's instructions. For immobilization, IGF mutants in 20 mM sodium acetate, pH 4.8, were injected onto the biosensor chip at a concentration of 50 μg/ml to yield approximately 450-600 RU's (resonance-responce units) of covalently-coupled protein. Unreacted groups were blocked with an injection of 1 M ethanolamine. […] Association rates (kₐ) and dissociation rates (kd) were calculated separately using a 1:1 Langmuir™ association model in the BIACORE™ evaluation software v. 3.0. The equilibrium dissociation constant (KD) was calculated as kd/kₐ.

T1 sequence (P17936 28-291 limits assumed): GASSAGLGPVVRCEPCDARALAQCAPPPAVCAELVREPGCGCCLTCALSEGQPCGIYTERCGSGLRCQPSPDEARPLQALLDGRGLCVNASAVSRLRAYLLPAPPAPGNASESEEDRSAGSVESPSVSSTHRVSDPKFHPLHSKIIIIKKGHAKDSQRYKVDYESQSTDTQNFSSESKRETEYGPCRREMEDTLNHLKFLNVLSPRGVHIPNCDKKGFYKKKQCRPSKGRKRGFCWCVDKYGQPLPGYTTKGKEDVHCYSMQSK

B1: F16A/F49A IGF-1 (purified, soluble) (ligand)
chain: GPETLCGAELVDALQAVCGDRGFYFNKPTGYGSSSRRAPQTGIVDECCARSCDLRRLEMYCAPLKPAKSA
In the case of B1, the “KD (mutant)/KD (IGF-1)” value is reported as 65.6.
